# Article PMC4336329 (PLoS ONE, 2015)
# In all, about 310,000 compounds went through this assay and about 14,000 (4.5%) showed an effect of 50% or more. The effect is printed as a negative number. The list shows a part of the results.
# Target: human ether-à-go-go-related gene (hERG) potassium channel (human, UniProt Q12809)
# Assay: primary screen, population patch clamp on CHO cells stably expressing hERG
# 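Also: peak tail current of the secondary pulse compared with the same well before compound.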
# Sequence of human ether-à-go-go-related gene (hERG) potassium channel (Q12809 whole entry, looked up): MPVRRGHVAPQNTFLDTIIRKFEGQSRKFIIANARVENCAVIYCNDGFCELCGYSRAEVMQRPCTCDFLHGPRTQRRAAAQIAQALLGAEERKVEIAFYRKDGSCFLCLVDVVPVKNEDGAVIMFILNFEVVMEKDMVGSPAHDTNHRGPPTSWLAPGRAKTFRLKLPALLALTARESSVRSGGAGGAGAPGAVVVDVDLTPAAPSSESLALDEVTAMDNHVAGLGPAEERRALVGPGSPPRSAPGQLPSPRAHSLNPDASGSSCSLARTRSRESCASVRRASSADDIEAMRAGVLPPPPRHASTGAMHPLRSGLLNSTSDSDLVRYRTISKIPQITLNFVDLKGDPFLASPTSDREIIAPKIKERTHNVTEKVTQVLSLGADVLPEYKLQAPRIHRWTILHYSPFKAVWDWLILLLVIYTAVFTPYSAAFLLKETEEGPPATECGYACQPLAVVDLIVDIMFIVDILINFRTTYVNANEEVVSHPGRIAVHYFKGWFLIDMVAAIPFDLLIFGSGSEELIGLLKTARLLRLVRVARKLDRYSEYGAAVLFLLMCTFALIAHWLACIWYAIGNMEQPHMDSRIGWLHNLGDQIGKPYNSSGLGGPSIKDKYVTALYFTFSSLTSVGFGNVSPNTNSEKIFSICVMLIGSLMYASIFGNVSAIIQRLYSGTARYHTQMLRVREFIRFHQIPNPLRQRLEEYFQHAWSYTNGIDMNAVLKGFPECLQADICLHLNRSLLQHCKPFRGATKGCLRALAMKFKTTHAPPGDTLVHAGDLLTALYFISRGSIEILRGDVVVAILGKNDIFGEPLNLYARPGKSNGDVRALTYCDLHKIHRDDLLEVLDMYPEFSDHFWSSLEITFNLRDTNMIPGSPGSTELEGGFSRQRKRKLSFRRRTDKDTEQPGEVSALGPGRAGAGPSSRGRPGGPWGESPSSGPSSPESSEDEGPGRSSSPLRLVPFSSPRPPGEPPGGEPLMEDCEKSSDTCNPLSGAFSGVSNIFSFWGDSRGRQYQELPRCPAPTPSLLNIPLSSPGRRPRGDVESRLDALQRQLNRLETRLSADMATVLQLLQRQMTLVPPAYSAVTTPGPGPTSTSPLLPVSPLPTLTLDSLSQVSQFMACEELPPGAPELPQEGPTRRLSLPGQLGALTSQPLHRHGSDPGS
row,Structure (SMILES),"hERG current change (%, negative = inhibition) at 10uM"
1,c1ccc(Cn2c(NCc3ccccn3)nc3ccccc32)cc1,-39%
2,S=C(NCCCN1CCOCC1)NC1CCCC1,8.32%
3,Cc1ccc(C(=O)/C=C\NCc2ccccc2)cc1,-1.88%
4,C#CCOCCOCCOCCNc1nc(N2CCN(C(=O)[C@H](C)n3cc(CCC[NH+]=C(N)N)nn3)CC2)nc(N2CCN(C(=O)[C@H](Cc3ccc(O)cc3)n3cc(CCO)nn3)CC2)n1.[Cl-],14.3%
5,CCCc1nnc(NC(=O)CCC(=O)Nc2ccc(Cl)cc2)s1,18.1%
6,CN(C)/C=N/c1c(C#N)cnn1-c1ccccc1,-1.03%
7,CCOC(=O)c1oc2nc(CC(C)C)c3c(c2c1N)CCCC3,-3.62%
8,O=C(Cc1c(F)cccc1Cl)NCCc1c[nH]c2ccccc12,8.99%
9,O=C(CC1Sc2ccccc2NC1=O)OC(C(=O)NCCc1ccccc1)c1cccnc1 (stereo not shown),-38.5%
10,Cn1c(=O)n(C)c2cc(S(=O)(=O)Nc3ccc(F)cc3)ccc21,20.9%
11,Cc1cc(C(=O)CN2C(=O)C(=O)N(CC(C)C)C2=O)c(C)n1-c1ccccc1F,-9.17%
12,COC(Cc1n[nH]c(=S)n1-c1ccccc1)OC,14.4%
13,COc1ccc(/C=C2/SC(=O)N(CCC(=O)Nc3ccc(S(=O)(=O)Nc4nccs4)cc3)C2=O)cc1,7.64%
14,Cc1ccc(-c2cc(C(=O)NCc3ccc4c(c3)OCO4)[nH]n2)c(O)c1C,-3.98%
15,Cc1ccc(C)c(N(CC(=O)NC2CCCC2)C(=O)CNC(=O)c2cccs2)c1,-0.398%
16,Cc1ccc(NC(=O)NC2(C(=O)NCc3ccco3)CCCCC2)cc1,3.86%
17,CC(C)CN1C2CCCC1CC(NC(=S)NCc1ccco1)C2 (stereo not shown),-18.7%
18,Cc1cccc(/C=N/NC(=O)c2ccc(NC(=O)c3ccccc3Cl)cc2)n1,27.7%
19,COc1ccc(C(=O)Nc2ccc(C)cn2)c(OC)c1,-4.18%
20,COc1ccccc1CCNC(=O)CCC(=O)N1CC2C[C@@H](C1)Cn1c2cccc1=O,6.31%
21,CC(C(=O)NCCC1=CCCCC1)c1ccc([N+](=O)[O-])cc1 (stereo not shown),9.98%
22,CCC(=O)Nc1nnc(S(=O)(=O)N2CCCC2)s1,8.85%

row,Structure (SMILES),"hERG current change (%, negative = inhibition) at 10uM"
1,CC(C)(C)NC(=O)C(c1ccc(O)cc1)N(Cc1ccco1)C(=O)CCC(=O)Nc1ccccn1 (stereo not shown),-2.54%
2,C=CCNC(=O)N[C@@H](Cc1ccccc1)C(=O)OC,13.3%
3,O=C(Nc1ncn[nH]1)c1cccc(S(=O)(=O)N2CCOCC2)c1,4.6%
4,CCn1cc(CNC(=O)c2ccc(OC3CCN(Cc4ccccn4)CC3)cc2)cn1,7.38%
5,CCN(CC)C(=O)c1cccc(NC(=O)c2ccccc2OCc2c(C)noc2C)c1,-18.2%
6,NS(=O)(=O)c1ccc(CNC(=O)c2ccc(NS(=O)(=O)c3ccc4[nH]c(=O)[nH]c4c3)cc2)cc1,-41.2%
7,COc1ccc(NS(=O)(=O)c2cccc(C(=O)NNC(=O)c3ccc(Br)o3)c2)cc1,-4.08%
8,O=C(C[n+]1cc(-c2ccccc2)n2c1CCC2)N1c2ccccc2Sc2ccccc21.[Cl-],-16.3%
9,CCOC(=O)c1c(C)nc2c(c1-c1ccc(Cl)cc1)C(=O)CC(C)(C)C2,-4.48%
10,N#CCCN(C(=O)COC(=O)CCc1ccccc1)c1ccccc1,-14.7%
11,Cc1ccc(NC(=O)CN2C(=O)CC(C)S(=O)(=O)c3ccccc32)cc1 (stereo not shown),9.68%
12,CC1CN=C(Nc2ccc(N(C)C)cc2)S1 (stereo not shown),-6.42%
13,CN(C)c1ccc(NC(=O)C2CCCN(S(=O)(=O)c3ccccc3)C2)cc1 (stereo not shown),11.5%
14,CN(C)S(=O)(=O)c1ccc(C(=O)N2CC(=O)Nc3ccc(F)cc3C2c2ccc(F)cc2)cc1 (stereo not shown),-21%
15,O=C(CSc1nnc(NC(=O)Cc2ccc(F)cc2)s1)NCc1ccco1,14.3%
16,O=C(OCCN1CCN(C2=NS(=O)(=O)c3ccccc32)CC1)c1cccc(Br)c1,-68.6%
17,COc1ccccc1/C=N/NC(=O)CC(=O)NCCc1ccccc1,12.1%
18,O=C(CSC1=N/C(=C/c2ccc(Cl)c(Cl)c2)C(=O)N1c1ccccc1F)NC1CC1,-4.14%
19,O=c1nc(N2CCCCCC2)nc(N2CCCCCC2)[nH]1,-0.988%
20,CCN(C(=O)c1cccc(Br)c1)C1CCS(=O)(=O)C1 (stereo not shown),9.22%
21,COc1cc(/C=N/N=C2/NC(=O)C(Cc3ccccc3)S2)ccc1O (stereo not shown),9.18%
